The text below walks through data of PubChem BioAssay AID1745853 (National Center for Advancing Translational Sciences (NCATS), 2022).

Holding throughout (experiment): Primary Screen for Target Class Profiling of Small Molecule Inhibitors of Methyltransferases
In test [1] the target is Glycine N-methyltransferase (Homo sapiens) (UniProt Q14749). The following applies: purified enzyme, MTase-Glo SAH luminescence; measured here: GNMT inhibition; at 40 µM; stronger effect = lower value. Put shortly:
(§1)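 Each enzyme was assayed with SAM and its substrate. SAH formation detected by MTase-Glo luminescence; single-point 40 uM screen[…].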

Test [2] deals with Guanidinoacetate N-methyltransferase (Homo sapiens) (UniProt Q14353). Conditions: purified enzyme, MTase-Glo SAH luminescence; measured here: GAMT inhibition; at 40 µM; stronger effect = lower value. Put shortly:
as §1

Test [3] has as its target Histamine N-methyltransferase (Homo sapiens) (UniProt P50135). Conditions: purified enzyme, MTase-Glo SAH luminescence; measured here: HNMT inhibition; at 40 µM; stronger effect = lower value. Put shortly:
as §1

In test [4] the target is Nicotinamide N-methyltransferase (Homo sapiens) (UniProt P40261). Conditions: purified enzyme, MTase-Glo SAH luminescence; measured here: NNMT inhibition; at 40 µM; stronger effect = lower value. The essentials: as §1
Test [5] addresses Phenylethanolamine N-methyltransferase (Homo sapiens) (UniProt P11086). The following applies: purified enzyme, MTase-Glo SAH luminescence; measured here: PNMT inhibition; at 40 µM; stronger effect = lower value. Put shortly: as §1

Several values for one entry are separate records, joined by “and”; a condition that tells them apart may be missing. Equal values may be shown once. The list shows a part of the results. Shown are side measurements of this screen, not its main read-out; they come without a call.
% is scaled to controls: 0 for no effect and ±100 for the full control effect.

For `COc1ccc(NS(=O)(=O)c2cc3c(cc2Cl)n(C)c(=O)n3C)c(OC)c1`, the activity change, negative = inhibition in test [1] was found to be 12.4%; in test [2], 1.14%; in test [3] it was 2.11%; in test [4], 4.1%; in test [5], 8.94%.
Taken in the same sequence, the figures for `O=C(CSc1nnc2[nH]c(=O)c(-c3ccc(Cl)cc3)nn12)Nc1cccc(F)c1` were 3.31%, 0%, 4.38%, -3.61% and -1.62%.
Taken in the same sequence, the figures for `Clc1ccccc1C1Nc2ccc(Br)cc2C2C=CCC21` (stereo not given) were -11%, -2.18%, -7.25%, -7.8% and -13.4%.
Take `Cc1cc(C)n2nc(C)c(C(=O)N3CCCC(c4cccc(C(=O)O)c4)C3)c2n1` (stereo not given): the activity change, negative = inhibition in test [1] is -2.94%; in test [2] it was -2.28%; in test [3] it was 1.67%; in test [4], -10.2%; in test [5], -0.248%.
The like results for `C=CCn1c(=O)c2ccc(C(=O)NCC(C)C)cc2n2c(=O)n(CC(=O)NC(C)CC)nc12` (stereo not given) were, in that order, 5.83%, 0%, 9.37%, 5.97% and 4.34%.
The like results for `COc1ccc(CC(=O)N2CCC3(CC2)C(=O)NCN3C(=O)C2CCCC2)cc1` were, in that order, -1.28%, -2.12%, -0.162%, -3.23% and -2.6%.
The like results for `CC(C)Cn1c(=O)c2ccccc2n2c(CCC(=O)Nc3cccc(Cl)c3)nnc12` were, in that order, -6.54%, 0%, -3.07%, -22.1% and -7.95%.
In the case of `O=C1CN(Cc2cccc(Cl)c2)S(=O)(=O)c2ccccc2N1Cc1cccc(F)c1`, the activity change, negative = inhibition in test [1] was 16%; in test [2], 0.297%; in test [3], 10.5%; in test [4], -0.012%; in test [5], 4.63%.
In the case of `CCC(C)NC(=O)CSc1nnc2n(CCc3ccccc3)c(=O)c3ccccc3n12` (stereo not given), the activity change, negative = inhibition in test [1] was 0.566%; in test [2] it was 4.21%; in test [3] it was 7.79%; in test [4] it was -5.86%; in test [5], 0.607%.
Taken in the same sequence, the figures for `CCN1CCN(CCNC(=O)c2cc3n(n2)CC(C)(C(=O)NCc2ccc(F)cc2)N(C)C3=O)CC1` (stereo not given) were 3.23%, -3.55%, -4.41%, -2.35% and -2.04%.
Taken in the same sequence, the figures for `COc1ccc(-c2nnc(-c3ccccc3)o2)cc1S(=O)(=O)N1CCCc2ccccc21` were 4.19%, 2.24%, 2.43%, -1.16% and 4.47%.
Taken in the same sequence, the figures for `COc1ccccc1-c1cn2c(n1)CO[C@@H](CNC1CCOCC1)C2` were -4.94%, -4.04%, -15.1%, -9.24% and -4.49%.
On to `COCCCN1C(=O)c2ccc(-c3ccccc3)n2CC1(C)C(=O)NC1CCCCCC1` (stereo not given), for which the activity change, negative = inhibition in test [1] is 1.19%; in test [2] it was 3.24%; in test [3], -1.98%; in test [4], -5.02%; in test [5] it was -0.908%.
The like results for `COC(=O)CNC(=O)c1nc(-c2ccc(Cl)nc2)c2ccccn12` were, in that order, -14.8%, -4.23%, -4.06%, -15.6% and -9.5%.
Turning to `C[C@H](O)[C@H](O)[C@H]1CNc2nc(N)[nH]c(=O)c2N1`, the activity change, negative = inhibition in test [1] was -1.22%; in test [2], -6.97%; in test [3], 5.27%; in test [4], -13.5%; in test [5], -1.41%.
The like results for `O=C(Cn1ccc2cc(S(=O)(=O)N3CCCC3)ccc21)NCc1ccc(F)cc1` were, in that order, 0.999%, -0.082%, -1.51%, -4.08% and -3.89%.
The like results for `COc1cccc(-c2nnc3n(Cc4ccccc4)c(=O)c4ccccc4n23)c1OC` were, in that order, 5.79%, 3.01%, 6.45%, 12.5% and 2.53%.
The like results for `O=C(CCn1ccc2cc(S(=O)(=O)N3CCCCC3)ccc21)NCCc1cccs1` were, in that order, 5.48%, 1.06%, 3.09%, 4.27% and 1.83%.
Turning to `COc1ccc(N2C(=O)c3cc4ccc(OC)cc4n3CC2(C)C(=O)NC2CCCCC2)cc1` (stereo not given), the activity change, negative = inhibition in test [1] worked out at 2.47%; in test [2], 0.35%; in test [3], 5.38%; in test [4], 7.54%; in test [5], 2.2%.
The like results for `COc1cc(F)c(C(C)C)cc1-c1ccc(C(F)(F)F)cc1CN1C(=O)OC(c2cc(C(F)(F)F)cc(C(F)(F)F)c2)C1C` (stereo not given) were, in that order, 1.75%, -10.5%, 9.52%, -34.2% and -3.78%.
Taken in the same sequence, the figures for `COc1ccc(CCCN2C(=O)O[C@@H]3CN(S(=O)(=O)N(C)C)C[C@@H]32)cc1` were 0.81%, 2.29%, 3.9%, 0.098% and 2.94%.
For the compound `CCS(=O)(=O)N1CCN(c2ccc(Nc3ncc(C(N)=O)c(NC4CC4)n3)cc2)CC1`, the activity change, negative = inhibition is -16.8% and -7.07% in test [1]; 2.42% in test [2]; 4.45% and 2.62% in test [3]; -127% and -87.1% in test [4]; -14.3% and -5.48% in test [5].
As for `CC(CC(C)O[C@@H]1O[C@H](CO)[C@@H](O)[C@H](O)[C@H]1O)OC(=O)/C=C/c1ccc(O)cc1` (stereo not given in full), the activity change, negative = inhibition is 3.94% in test [1]; 5.09% in test [2]; 2.62% in test [3]; -6.13% in test [4]; 6.08% in test [5].
The like results for `COc1ccc(-c2onc(C)c2C(=O)NCCCCc2ccccc2)cc1` were, in that order, -2.19%, -0.084%, 1.14%, -6.12% and -1.91%.
Taken in the same sequence, the figures for `Fc1cccc2c1NC(c1ccc(Br)cc1)C1CC=CC21` (stereo not given) were -7.6%, 3.18%, 0.244%, -10.8% and -2.03%.
For `CCOc1cccc(-c2nc(C(=O)Nc3ccc(F)cc3)cs2)c1`, the activity change, negative = inhibition in test [1] was -3.84%; in test [2], -1.95%; in test [3], -2.17%; in test [4] it was -5.07%; in test [5] it was -8.87%.
The like results for `Cc1ccc(CNC(=O)Cn2ccc3cc(S(=O)(=O)N4CCCCC4)ccc32)cc1` were, in that order, 1.8%, 0.218%, 4.07%, -0.182% and 0.479%.
Taken in the same sequence, the figures for `COc1ccc(OC)c(NS(=O)(=O)c2cc3c(cc2C)n(C)c(=O)n3C)c1` were -0.602%, 1.66%, -1.04%, -4.43% and 1.92%.
The like results for `C=CCN1CC2(CCC1=O)CCN(C(=O)CC(C)n1ccnc1C)CC2` (stereo not given) were, in that order, -2.33%, -2.84%, -3.9%, -4.94% and 1.03%.
